Source: ChEMBL document CHEMBL3526033, “Identification of human liver cytochrome P450 enzymes involved in the metabolism of SCH 530348 (Vorapaxar), a potent oral thrombin protease-activated receptor 1 antagonist” (Drug Metab Dispos, 2011)

Substrate: CCOC(=O)N[C@@H]1CC[C@@H]2[C@@H](C1)C[C@H]1C(=O)O[C@H](C)[C@H]1[C@H]2/C=C/c1ccc(-c2cccc(F)c2)cn1
Test: Activity of human recombinant CYP3A4 assessed as enzyme-mediated (3R,3aS,4S,4aR,7R,8aR,9aR)-7-amino-4-((E)-2-(5-(3-fluorophenyl)pyridin-2-yl)vinyl)-3-methyldecahydronaphtho[2,3-c]furan-1(3H)-one formation by LC-MS/MS analysis
Assay type: ADME

B1: Cytochrome P450 3A4 (Homo sapiens) (protein)
chain: MALIPDLAMETWLLLAVSLVLLYLYGTHSHGLFKKLGIPGPTPLPFLGNILSYHKGFCMFDMECHKKYGKVWGFYDGQQPVLAITDPDMIKTVLVKECYSVFTNRRPFGPVGFMKSAISIAEDEEWKRLRSLLSPTFTSGKLKEMVPIIAQYGDVLVRNLRREAETGKPVTLKDVFGAYSMDVITSTSFGVNIDSLNNPQDPFVENTKKLLRFDFLDPFFLSITVFPFLIPILEVLNICVFPREVTNFLRKSVKRMKESRLEDTQKHRVDFLQLMIDSQNSKETESHKALSDLELVAQSIIFIFAGYETTSSVLSFIMYELATHPDVQQKLQEEIDAVLPNKAPPTYDTVLQMEYLDMVVNETLRLFPIAMRLERVCKKDVEINGMFIPKGVVVMIPSYALHRDPKYWTEPEKFLPERFSKKNKDNIDPYIYTPFGSGPRNCIGMRFALMNMKLALIRVLQNFSFKPCKETQIPLKLSLGGLLQPEKPVVLKVESRDGTVSGA
- Km: 22.9 µM
- Vmax: 0.000166 µmol/min
